{"source": "paper PMC4336329", "about": "(PLoS ONE, 2015)", "note": "The whole screen tested about 310,000 compounds, of which about 2,200 (0.71%) showed an effect of 50% or more. Effects have a minus sign here. The list shows a part of the results.", "data": [{"target": "human ether-à-go-go-related gene (hERG) potassium channel (human, UniProt Q12809)", "sequence (Q12809 whole entry, looked up)": "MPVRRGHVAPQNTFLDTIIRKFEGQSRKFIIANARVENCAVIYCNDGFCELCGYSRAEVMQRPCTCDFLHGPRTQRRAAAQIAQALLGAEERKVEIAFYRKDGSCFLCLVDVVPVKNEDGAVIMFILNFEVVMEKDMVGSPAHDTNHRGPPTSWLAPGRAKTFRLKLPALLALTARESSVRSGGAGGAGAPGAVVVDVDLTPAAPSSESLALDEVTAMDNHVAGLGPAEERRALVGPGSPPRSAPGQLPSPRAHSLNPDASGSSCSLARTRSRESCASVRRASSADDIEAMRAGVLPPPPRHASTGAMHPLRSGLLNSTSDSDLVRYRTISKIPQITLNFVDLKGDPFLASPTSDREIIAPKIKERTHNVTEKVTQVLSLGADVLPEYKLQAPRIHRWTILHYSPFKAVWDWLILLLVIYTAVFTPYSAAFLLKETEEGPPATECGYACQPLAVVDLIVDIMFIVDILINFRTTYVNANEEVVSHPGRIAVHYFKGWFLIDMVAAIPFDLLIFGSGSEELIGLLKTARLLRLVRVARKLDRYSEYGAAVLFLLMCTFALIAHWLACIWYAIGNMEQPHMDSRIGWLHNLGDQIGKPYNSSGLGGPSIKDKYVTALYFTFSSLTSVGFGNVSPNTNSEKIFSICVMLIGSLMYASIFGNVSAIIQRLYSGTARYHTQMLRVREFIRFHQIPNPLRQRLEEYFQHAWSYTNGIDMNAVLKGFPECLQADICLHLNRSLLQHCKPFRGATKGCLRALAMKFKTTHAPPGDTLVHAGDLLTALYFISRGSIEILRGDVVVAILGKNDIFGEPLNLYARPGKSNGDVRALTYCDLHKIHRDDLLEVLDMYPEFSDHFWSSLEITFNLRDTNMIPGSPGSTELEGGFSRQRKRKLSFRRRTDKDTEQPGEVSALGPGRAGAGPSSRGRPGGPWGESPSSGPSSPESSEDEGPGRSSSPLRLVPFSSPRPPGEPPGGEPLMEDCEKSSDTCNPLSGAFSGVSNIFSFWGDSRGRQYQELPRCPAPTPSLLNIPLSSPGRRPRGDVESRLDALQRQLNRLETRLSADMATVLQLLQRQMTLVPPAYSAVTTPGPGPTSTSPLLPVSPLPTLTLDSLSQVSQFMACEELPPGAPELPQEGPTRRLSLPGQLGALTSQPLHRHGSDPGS", "test": "primary screen, population patch clamp on CHO cells stably expressing hERG", "units": {"hERG current change (%, negative = inhibition) at 1uM": "%"}, "values": [{"compound": "O=C(Nc1c2c(nn1-c1ccc(F)cc1)CS(=O)C2)c1ccco1", "note": "(stereo not shown)", "hERG current change (%, negative = inhibition) at 1uM": -7.47}, {"compound": "CC(C)N1CCN(Cc2ccc(OC3CCCC3)cc2)CC1CCO", "note": "(stereo not shown)", "hERG current change (%, negative = inhibition) at 1uM": 2.54}, {"compound": "Cc1cc(OC(=O)c2cccc(Cl)c2)c([N+](=O)[O-])c(=O)[nH]1", "hERG current change (%, negative = inhibition) at 1uM": 14.2}, {"compound": "Cc1cc(NC(=O)CCC(=O)N(c2ccccc2)C(C(=O)NC2CCCC2)c2ccc(F)cc2)no1", "note": "(stereo not shown)", "hERG current change (%, negative = inhibition) at 1uM": 19.5}, {"compound": "CC(C)OC(=O)CSc1nnc(-c2cccnc2)n1N", "hERG current change (%, negative = inhibition) at 1uM": 2.3}, {"compound": "COc1ccc(-n2c(C)cc(C(=O)COC(=O)Cc3n[nH]c(=O)c4ccccc34)c2C)cc1", "hERG current change (%, negative = inhibition) at 1uM": 10.3}, {"compound": "O=C1CN(C(=O)COc2c(F)c(F)cc(F)c2F)c2ccccc2N1", "hERG current change (%, negative = inhibition) at 1uM": 7}, {"compound": "CC(C)(CC(=O)O)CC(=O)N1CCCN(c2nc3ccc(Cl)cc3s2)CC1", "hERG current change (%, negative = inhibition) at 1uM": 10.5}, {"compound": "COc1cc(NC(=S)N2CCOCC2)c(OC)cc1Cl", "hERG current change (%, negative = inhibition) at 1uM": 12.6}, {"compound": "CCNC(=S)N/N=C/c1sccc1C", "hERG current change (%, negative = inhibition) at 1uM": 9.94}, {"compound": "COCCN(CCOC)C(=O)CSc1ccc(S(=O)(=O)N2CCN(C)CC2)cn1", "hERG current change (%, negative = inhibition) at 1uM": 11.9}, {"compound": "CCOC(=O)/C(C#N)=C\\C1=C(N2CCCC2)CC(C)(C)OC1", "hERG current change (%, negative = inhibition) at 1uM": 7.44}, {"compound": "O=C(NCCc1c[nH]c2ccccc12)/C(=C\\c1cccnc1)NC(=O)c1cccs1", "hERG current change (%, negative = inhibition) at 1uM": 9.4}, {"compound": "CN1CCC(N(C)c2nc(-c3ccccc3)nc3ccccc23)CC1", "hERG current change (%, negative = inhibition) at 1uM": -49.4}, {"compound": "CCN(CC(=O)Nc1ccccc1C(F)(F)F)C(=O)c1cc(-c2ccccc2)nn1-c1ccccc1", "hERG current change (%, negative = inhibition) at 1uM": 11.7}, {"compound": "CCN(CC)CCNC(=O)c1ccc(NC(=O)Cc2cccc3ccccc23)cc1", "hERG current change (%, negative = inhibition) at 1uM": 4.37}, {"compound": "CN(C(=O)CCc1nnc(-c2ccc(-c3ccccc3)cc2)o1)C1CCOCC1", "hERG current change (%, negative = inhibition) at 1uM": 2.58}, {"compound": "CCOc1ccc(NC(=O)CN(C)S(=O)(=O)c2cnc[nH]2)cc1", "hERG current change (%, negative = inhibition) at 1uM": 19.6}, {"compound": "O=C(NCC(=O)N(c1ccccc1)C(C(=O)NC1CCCC1)c1ccncc1)c1ccco1", "note": "(stereo not shown)", "hERG current change (%, negative = inhibition) at 1uM": -3.52}, {"compound": "CCOC(=O)c1nn(-c2ccc(OCC)cc2)c2nc(-c3cccc(OC)c3)c(C#N)c(=O)n12", "hERG current change (%, negative = inhibition) at 1uM": 10.8}, {"compound": "Cl.c1coc(C2=NCCc3ccccc32)c1", "hERG current change (%, negative = inhibition) at 1uM": 7.61}, {"compound": "Cc1ccc2c(c1)N(C(=O)CCC(=O)N1CCc3ccccc3C1)CCO2", "hERG current change (%, negative = inhibition) at 1uM": 7.35}, {"compound": "CC(Oc1ccc(Cl)cc1Cl)c1nc(-c2ccccn2)no1", "note": "(stereo not shown)", "hERG current change (%, negative = inhibition) at 1uM": 5.44}, {"compound": "CC(=O)Nc1ccc(NC(=O)CCCCCn2nnc3ccccc3c2=O)cc1", "hERG current change (%, negative = inhibition) at 1uM": 10.1}, {"compound": "Cc1ccccc1N/C(SCc1ccc(Cl)cc1)=C(/C#N)C(N)=O", "hERG current change (%, negative = inhibition) at 1uM": 9.03}, {"compound": "COc1ccccc1C(=O)NC(=O)Cn1nc(C)c([N+](=O)[O-])c1C", "hERG current change (%, negative = inhibition) at 1uM": 5.57}, {"compound": "CC(C)[C@H](NC(=O)c1ccccc1)C(=O)OCC(=O)NCc1ccc(F)cc1", "hERG current change (%, negative = inhibition) at 1uM": 7.72}, {"compound": "CCCS(=O)(=O)NCc1cn2c(C)csc2n1", "hERG current change (%, negative = inhibition) at 1uM": 6.87}, {"compound": "CC(=O)n1cc([C@H]2C=C(C(=O)N3CCOCC3)O[C@@H](OCCCCO)C2)c2ccccc21", "hERG current change (%, negative = inhibition) at 1uM": 18.2}, {"compound": "Cc1cc(C)c2nc(N3CCCN(C(=O)c4ccco4)CC3)c(C#N)cc2c1", "hERG current change (%, negative = inhibition) at 1uM": -6.75}, {"compound": "O=S(=O)(c1cccc(-c2csc(-c3cccnc3)n2)c1)N1CCOCC1", "hERG current change (%, negative = inhibition) at 1uM": 8.46}, {"compound": "CNS(=O)(=O)c1cccc(C(=O)OCC(=O)N2CCc3ccccc3C2)c1", "hERG current change (%, negative = inhibition) at 1uM": 3.36}, {"compound": "O=C(O)CN(c1ccccc1F)S(=O)(=O)c1ccccc1", "hERG current change (%, negative = inhibition) at 1uM": 19.4}, {"compound": "Cc1ccc(Nc2nc(-c3c(C)nc4ncccn34)cs2)cc1", "hERG current change (%, negative = inhibition) at 1uM": 9.73}, {"compound": "Cc1ccc(S(=O)(=O)N2CC3CCCC2C3)cc1", "note": "(stereo not shown)", "hERG current change (%, negative = inhibition) at 1uM": 11}, {"compound": "N#C/C(=C(/O)CN1CCN(c2ccccc2F)CC1)c1nc(-c2ccc(Cl)cc2)cs1", "hERG current change (%, negative = inhibition) at 1uM": 2.25}, {"compound": "COCCNC(=O)CN(C(=O)CCC(=O)Nc1ccccn1)c1ccc(F)c(Cl)c1", "hERG current change (%, negative = inhibition) at 1uM": 6.65}, {"compound": "CCCn1c(Cc2ccccc2)nnc1SC(C)C(=O)NC1CC1", "note": "(stereo not shown)", "hERG current change (%, negative = inhibition) at 1uM": 9.83}, {"compound": "CC1CCN(C(=O)CN(c2cccc(F)c2)S(C)(=O)=O)CC1", "hERG current change (%, negative = inhibition) at 1uM": -1.32}, {"compound": "C=C(C)CN(CC)C(=O)COc1ccc(S(=O)(=O)Nc2ccc(OC)cc2)cc1", "hERG current change (%, negative = inhibition) at 1uM": 4.88}, {"compound": "Cc1csc(NC(=O)CSc2ccc3nnc(-c4ccncc4)n3n2)n1", "hERG current change (%, negative = inhibition) at 1uM": 6.6}, {"compound": "COc1cc2c(-c3ccc4cc[nH]c4c3)c(-c3ccc(C#N)cc3)oc(=O)c2cc1OC", "hERG current change (%, negative = inhibition) at 1uM": 13.1}, {"compound": "O=C(Nc1nnc(SCC(=O)N2CCCc3ccccc32)s1)c1cccc2ccccc12", "hERG current change (%, negative = inhibition) at 1uM": 13.9}, {"compound": "O=C(COC(=O)C1CC1)NCCNC(=O)COC(=O)C1CC1", "hERG current change (%, negative = inhibition) at 1uM": 15.1}, {"compound": "CC(C)[C@H](NC(=O)[C@H](Cc1ccccc1)n1c(=O)[nH]c2ccccc2c1=O)C(=O)N1CCC[C@H]1C(=O)O", "hERG current change (%, negative = inhibition) at 1uM": 13.8}, {"compound": "O=[N+]([O-])c1cc(C(F)(F)F)cc([N+](=O)[O-])c1N1CCN(S(=O)(=O)c2ccccc2)CC1", "hERG current change (%, negative = inhibition) at 1uM": 6.1}, {"compound": "Cc1cc(C)c(/C([O-])=C(/C(=S)Nc2ccc(SC(F)F)cc2)[n+]2ccccc2)cc1C", "hERG current change (%, negative = inhibition) at 1uM": 15.8}, {"compound": "COc1ccc(-c2cc3c(=O)n(CC(=O)NCc4cccnc4)ncn3n2)cc1", "hERG current change (%, negative = inhibition) at 1uM": -4.91}, {"compound": "CN(C(=O)COc1ncnc2c1cnn2-c1ccccc1)C1CCCCC1", "hERG current change (%, negative = inhibition) at 1uM": 8.86}, {"compound": "Cc1ccc2c(c1)c1c(n2C)C(=O)CCC1", "hERG current change (%, negative = inhibition) at 1uM": 9.72}, {"compound": "CCCCn1c(C)cc(C)c(S(=O)(=O)c2ccccc2C)c1=O", "hERG current change (%, negative = inhibition) at 1uM": 11.8}, {"compound": "O=c1c(Cl)c(NCc2ccco2)cnn1C12CC3CC(CC(C3)C1)C2", "hERG current change (%, negative = inhibition) at 1uM": 4.54}, {"compound": "CCOC(=O)N1CCN(C(=O)c2ccc(Cl)nc2)CC1", "hERG current change (%, negative = inhibition) at 1uM": -1.96}, {"compound": "CN(Cc1ccccc1)C(=O)CSc1nnc(-c2ccco2)n1-c1ccccc1", "hERG current change (%, negative = inhibition) at 1uM": -49}, {"compound": "COc1cc2c(cc1OC)CN(C(=O)NS(=O)(=O)c1ccc(C)cc1)CC2", "hERG current change (%, negative = inhibition) at 1uM": -2.15}]}]}
